Laboratory results taken from paper PMC4336329 (PLoS ONE, 2015).
The campaign covered roughly 310,000 compounds. About 2,200 (0.71%) showed an effect of 50% or more. Effects have a minus sign here. The list shows a part of the results.

The molecules below were run against human ether-à-go-go-related gene (hERG) potassium channel (human, UniProt Q12809) (assay: primary screen, population patch clamp on CHO cells stably expressing hERG).
human ether-à-go-go-related gene (hERG) potassium channel, sequence (Q12809 whole entry, looked up): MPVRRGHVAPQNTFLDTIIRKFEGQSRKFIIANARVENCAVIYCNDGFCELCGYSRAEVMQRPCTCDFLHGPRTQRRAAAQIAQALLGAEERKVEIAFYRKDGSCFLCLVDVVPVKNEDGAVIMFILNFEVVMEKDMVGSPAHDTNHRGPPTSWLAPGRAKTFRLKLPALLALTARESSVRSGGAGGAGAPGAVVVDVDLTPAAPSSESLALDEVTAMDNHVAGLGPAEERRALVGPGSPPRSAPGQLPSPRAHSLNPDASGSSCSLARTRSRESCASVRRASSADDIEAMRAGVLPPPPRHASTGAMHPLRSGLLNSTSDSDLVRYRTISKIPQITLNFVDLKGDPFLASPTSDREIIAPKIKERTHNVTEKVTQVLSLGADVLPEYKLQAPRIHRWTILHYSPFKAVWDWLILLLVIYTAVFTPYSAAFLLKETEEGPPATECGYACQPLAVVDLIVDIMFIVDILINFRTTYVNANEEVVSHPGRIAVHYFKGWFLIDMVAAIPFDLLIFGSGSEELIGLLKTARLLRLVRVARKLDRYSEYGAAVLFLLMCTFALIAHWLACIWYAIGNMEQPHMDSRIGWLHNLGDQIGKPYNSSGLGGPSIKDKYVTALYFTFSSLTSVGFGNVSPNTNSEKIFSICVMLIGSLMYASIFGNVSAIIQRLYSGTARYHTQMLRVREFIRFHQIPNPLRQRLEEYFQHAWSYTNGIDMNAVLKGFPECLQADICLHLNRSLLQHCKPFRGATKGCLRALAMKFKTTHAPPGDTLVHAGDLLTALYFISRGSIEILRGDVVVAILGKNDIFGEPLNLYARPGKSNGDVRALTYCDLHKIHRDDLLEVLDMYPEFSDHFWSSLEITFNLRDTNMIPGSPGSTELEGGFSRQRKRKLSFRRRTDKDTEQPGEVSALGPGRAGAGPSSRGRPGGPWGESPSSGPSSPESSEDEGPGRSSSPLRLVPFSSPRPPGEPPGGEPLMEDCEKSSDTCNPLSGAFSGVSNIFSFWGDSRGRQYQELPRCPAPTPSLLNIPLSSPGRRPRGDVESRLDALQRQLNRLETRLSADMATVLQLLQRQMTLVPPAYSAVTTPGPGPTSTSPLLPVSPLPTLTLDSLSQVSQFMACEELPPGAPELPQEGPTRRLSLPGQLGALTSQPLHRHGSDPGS
For CC1(C)C2CCC1(CS(=O)(=O)NC(CC(=O)O)c1cccc(Br)c1)C(=O)C2 (centres unmarked), the “hERG current change (%, negative = inhibition) at 1uM” value was 15.5%. For CCCCCCCCNC(=O)/C(C#N)=C/c1ccccc1[N+](=O)[O-], the “hERG current change (%, negative = inhibition) at 1uM” value was 6.62%. For CCOC(=O)C1=C(O)CSC1=Nc1cccc2ccccc12, the “hERG current change (%, negative = inhibition) at 1uM” value was 12.3%. In the case of Cc1c(Cl)c([N+](=O)[O-])nn1CC(=O)N1CCCC1, the “hERG current change (%, negative = inhibition) at 1uM” value is reported as 7.88%. With O=C(c1cccc(Cl)c1)N1CCN(Cc2ccccc2)CC1 the “hERG current change (%, negative = inhibition) at 1uM” value was 2.47%. With CC(Sc1ccccc1)C(=O)Nc1cccc(N(C)S(C)(=O)=O)c1 (centres unmarked) the “hERG current change (%, negative = inhibition) at 1uM” value was 12.5%. For CCCc1ccc(C(C)NC(=S)NCc2ccc(F)cc2)cc1 (centres unmarked), the “hERG current change (%, negative = inhibition) at 1uM” value was 10.8%. With CSCCC(NC(=O)COc1ccccc1)C(=O)OCCOc1ccc(F)cc1 (centres unmarked) the “hERG current change (%, negative = inhibition) at 1uM” value was 17.6%. Cc1ccc(-n2ncc3c2CC(C)(C)CC3NC(=O)CCc2cccnc2)cc1 (centres unmarked) was tested, and the “hERG current change (%, negative = inhibition) at 1uM” value was -26%. O=C1c2ccccc2C(=O)N1c1ccc(Br)c2cccnc12 was tested, and the “hERG current change (%, negative = inhibition) at 1uM” value was 10%. With CCSc1nc2c(c(=O)[nH]1)C(c1ccncc1)C(C(=O)OC(C)C)=C(C)N2 (centres unmarked) the “hERG current change (%, negative = inhibition) at 1uM” value was 5.85%. Cc1ccc2[nH]cc(CCNC(=O)CN3C(=O)c4ccccc4C3=O)c2c1 was tested, and the “hERG current change (%, negative = inhibition) at 1uM” value was 0.732%. O=C(O)c1oc2ccc(Br)cc2c1-n1cccc1 was tested, and the “hERG current change (%, negative = inhibition) at 1uM” value was 8.85%. Clc1cccc(C2CCN(Cc3nc(COc4ccccc4)no3)C2)c1 (centres unmarked) was tested, and the “hERG current change (%, negative = inhibition) at 1uM” value was -9.89%. For CCc1ccc(Oc2cc(C)nc(N)n2)cc1, the “hERG current change (%, negative = inhibition) at 1uM” value was 11.3%. With CCOC(=O)N1CCN(C(=O)c2cc(COc3cccc(C(F)(F)F)c3)on2)CC1 the “hERG current change (%, negative = inhibition) at 1uM” value was -9.81%. In the case of C/C(=N\NC(=O)c1nn(C)cc1Br)c1ccncc1, the “hERG current change (%, negative = inhibition) at 1uM” value is reported as 2.29%. For CN(C)S(=O)(=O)c1cccc(COC(=O)Cc2c(F)cccc2Cl)c1, the “hERG current change (%, negative = inhibition) at 1uM” value was 14.2%. With Cc1cc(C)cc(NC(=O)C2(c3ccccc3)CC2(Cl)Cl)c1 (centres unmarked) the “hERG current change (%, negative = inhibition) at 1uM” value was -2.44%. In the case of N/C(=N\OC(=O)CCC1CCCCC1)c1ccc([N+](=O)[O-])cc1, the “hERG current change (%, negative = inhibition) at 1uM” value is reported as -8.83%. In the case of CCCCn1c(N)c(N(CC)C(=O)c2ccc3c(c2)S(=O)(=O)c2ccccc2C3=O)c(=O)[nH]c1=O, the “hERG current change (%, negative = inhibition) at 1uM” value is reported as 6.32%. With Cc1ccc(C(=O)c2c3ccc(C(F)(F)F)cc3nn2CCC(N)=O)cc1 the “hERG current change (%, negative = inhibition) at 1uM” value was 7.33%. With CCn1c(CSc2nnc(-c3ccncc3)n2C)nc2cc(C(=O)O)ccc21 the “hERG current change (%, negative = inhibition) at 1uM” value was 13%. In the case of CC(C)CN(C(=O)COC(=O)Cc1c[nH]c2ccccc12)C1CCS(=O)(=O)C1 (centres unmarked), the “hERG current change (%, negative = inhibition) at 1uM” value is reported as 9.7%. O=[N+]([O-])c1ccc(N2CCCC2)cc1N1CCCC1 was tested, and the “hERG current change (%, negative = inhibition) at 1uM” value was 6.74%. In the case of COc1ccc2nc3c(nc2c1)CCCC3, the “hERG current change (%, negative = inhibition) at 1uM” value is reported as 8.49%. In the case of CC(=O)Cc1cc(O)c2ccccc2c1OC(=O)c1ccc(Br)cc1, the “hERG current change (%, negative = inhibition) at 1uM” value is reported as -1.12%. In the case of CCOc1ccc(C(=O)N(CN2CCCC2=O)c2ccccc2)cc1, the “hERG current change (%, negative = inhibition) at 1uM” value is reported as 12.5%. With COc1ccc(NC2=C(C(C)=O)C(c3ccc(OC)cc3)C(C(C)=O)C(C)(O)C2)cc1 (centres unmarked) the “hERG current change (%, negative = inhibition) at 1uM” value was 15.4%. For Cc1cc2oc(=O)cc(CN3CCN(S(=O)(=O)c4cccs4)CC3)c2cc1C, the “hERG current change (%, negative = inhibition) at 1uM” value was -0.116%. In the case of Cc1[nH]c(C(=O)N/N=C/c2ccc(C(=O)O)cc2)c(C)c1C(=O)N/N=C/c1ccc(C(=O)O)cc1, the “hERG current change (%, negative = inhibition) at 1uM” value is reported as -3.86%. In the case of Cc1ccc(O)c(C(=O)c2cnn(C(=O)COc3ccc(Cl)cc3)c2)c1, the “hERG current change (%, negative = inhibition) at 1uM” value is reported as 8.86%. For CCOC(=O)c1cc(NC(=O)/C=C\C(=O)O)ccc1Cl, the “hERG current change (%, negative = inhibition) at 1uM” value was 8.58%. For Cc1cc(C)c(S(=O)(=O)N2CCOC2CNC(=O)C(=O)NCCCn2ccnc2)c(C)c1 (centres unmarked), the “hERG current change (%, negative = inhibition) at 1uM” value was 5.34%. With Cc1cccc(N(C(=O)CNC(=O)c2ccco2)C(C(=O)NC2CCCC2)c2cccnc2)c1 (centres unmarked) the “hERG current change (%, negative = inhibition) at 1uM” value was 9.55%. With CC(=O)c1cc(C#N)c(N2CCN(c3ccccc3)CC2)nc1C the “hERG current change (%, negative = inhibition) at 1uM” value was 11.8%. C/C(CC(=O)Nc1cccc(Cl)c1Cl)=N\NC(=O)C(=O)N1CCCC1 was tested, and the “hERG current change (%, negative = inhibition) at 1uM” value was 13%. In the case of O=C(NC1CC2CCC1C2)c1ccco1 (centres unmarked), the “hERG current change (%, negative = inhibition) at 1uM” value is reported as 2.62%. For O=C(CNc1cccc(C(F)(F)F)c1)N/N=C/C1CCCCC1, the “hERG current change (%, negative = inhibition) at 1uM” value was 13.5%. With Cc1cccc(C)c1OCCNC(=O)C(=O)NCc1ccco1 the “hERG current change (%, negative = inhibition) at 1uM” value was 12.6%. Cc1c(N=Cc2c(O)n(CCc3ccc(F)cc3)c(=O)[nH]c2=O)c(=O)n(-c2ccccc2)n1C was tested, and the “hERG current change (%, negative = inhibition) at 1uM” value was -25.2%. In the case of N/C(=N\OC(=O)C(c1ccccc1)c1ccccc1)c1ccncc1, the “hERG current change (%, negative = inhibition) at 1uM” value is reported as 3.49%. For N#C/C(=C\c1cccc([N+](=O)[O-])c1)C(=O)NCC1CCCO1 (centres unmarked), the “hERG current change (%, negative = inhibition) at 1uM” value was 4.26%. For CCc1ccc(NC2CC(=O)N(CCc3ccc(OC)c(OC)c3)C2=O)cc1 (centres unmarked), the “hERG current change (%, negative = inhibition) at 1uM” value was -9.49%.
